Laboratory results published in the supplement of paper PMC8728848.
The list shows a part of the results.

Experiments:
Test in all cases: glycan array binding signal (z-score within array); higher = stronger binding
Details in all cases: glycan notation: IUPAC condensed, linker removed
[1] = biological target: Neu5Ac(a2-3)Gal(b1-4)GlcNAc(b1-3)Gal(b1-4)GlcNAc(b1-3)Gal(b1-4)GlcNAc
In short: (§1)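 Glycan array data came from 3228 arrays in the Consortium for Functional Glycomics database, and only arrays with an available protein sequence were kept. Glycan names were put into IUPAC-condensed notation, and columns mapping to the same glycan were averaged. The binding signal is a within-array Z-score, averaged across arrays of one protein sequence run at different concentrations or buffers and across linkers. A negative Z-score can be read as non-binding.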

[2] = biological target: Neu5Ac(a2-3)Gal(b1-4)GlcNAc(b1-3)Gal(b1-4)GlcNAc(b1-3)Gal(b1-4)GlcNAc(b1-2)Man(a1-3)[Neu5Ac(a2-3)Gal(b1-4)GlcNAc(b1-3)Gal(b1-4)GlcNAc(b1-3)Gal(b1-4)GlcNAc(b1-2)Man(a1-6)]GalNAc
In short: as §1

[3] = biological target: Neu5Ac(a2-3)Gal(b1-4)GlcNAc(b1-3)Gal(b1-4)GlcNAc(b1-3)GalNAc
In short: as §1

[4] = biological target: Neu5Ac(a2-3)Gal(b1-4)GlcNAc(b1-3)Gal(b1-4)GlcNAc(b1-3)[Neu5Ac(a2-3)Gal(b1-4)GlcNAc(b1-3)Gal(b1-4)GlcNAc(b1-6)]GalNAc
In short: as §1

[5] = biological target: Neu5Ac(a2-3)Gal(b1-4)GlcNAc(b1-3)Gal(b1-4)GlcNAc(b1-6)[Gal(b1-3)]GalNAc
In short: as §1

[6] = biological target: Neu5Ac(a2-3)Gal(b1-4)GlcNAc(b1-3)Gal(b1-4)[Fuc(a1-3)]GlcNAc
In short: as §1

[7] = biological target: Neu5Ac(a2-3)Gal(b1-4)GlcNAc(b1-3)GalNAc
In short: as §1

[8] = biological target: Neu5Ac(a2-3)Gal(b1-4)GlcNAc(b1-3)[Neu5Ac(a2-3)Gal(b1-4)GlcNAc(b1-6)]GalNAc
In short: as §1

[9] = biological target: Neu5Ac(a2-3)Gal(b1-4)GlcNAc(b1-6)GalNAc
In short: as §1

[10] = biological target: Neu5Ac(a2-3)Gal(b1-4)GlcNAc(b1-6)[Gal(b1-3)]GalNAc
In short: as §1

[11] = biological target: Neu5Ac(a2-3)Gal(b1-4)GlcNAc(b1-6)[Neu5Ac(a2-3)Gal(b1-3)]GalNAc
In short: as §1

[12] = biological target: Neu5Ac(a2-3)Gal(b1-4)GlcNAc6S
In short: as §1

[13] = biological target: Neu5Ac(a2-3)Gal(b1-4)[Fuc(a1-3)]GlcNAc
In short: as §1

[14] = biological target: Neu5Ac(a2-3)Gal(b1-4)[Fuc(a1-3)]GlcNAc(b1-2)Man
In short: as §1

[15] = biological target: Neu5Ac(a2-3)Gal(b1-4)[Fuc(a1-3)]GlcNAc(b1-3)Gal
In short: as §1

[16] = biological target: Neu5Ac(a2-3)Gal(b1-4)[Fuc(a1-3)]GlcNAc(b1-3)Gal(b1-4)GlcNAc
In short: as §1

[17] = biological target: Neu5Ac(a2-3)Gal(b1-4)[Fuc(a1-3)]GlcNAc(b1-3)Gal(b1-4)[Fuc(a1-3)]GlcNAc(b1-3)Gal(b1-4)[Fuc(a1-3)]GlcNAc
In short: as §1

[18] = biological target: Neu5Ac(a2-3)Gal(b1-4)[Fuc(a1-3)]GlcNAc(b1-3)GalNAc
In short: as §1

[19] = biological target: Neu5Ac(a2-3)Gal(b1-4)[Fuc(a1-3)]GlcNAc(b1-6)[Gal(b1-3)]GalNAc
In short: as §1

[20] = biological target: Neu5Ac(a2-3)Gal(b1-4)[Fuc(a1-3)]GlcNAc(b1-6)[Neu5Ac(a2-3)Gal(b1-3)]GalNAc
In short: as §1

[21] = biological target: Neu5Ac(a2-3)Gal(b1-4)[Fuc(a1-3)]GlcNAc6S
In short: as §1

[22] = biological target: Neu5Ac(a2-3)Gal6S(b1-4)GlcNAc
In short: as §1

[23] = biological target: Neu5Ac(a2-3)Gal6S(b1-4)[Fuc(a1-3)]GlcNAc
In short: as §1

B1: LecB LY19 (Pseudomonas aeruginosa) (protein)
chain: MATQGVFTLPANTQFGVTAFANSAGTQTVNVQVNNETVATFTGQSTNNGIIGSKVLNSGGGGKVQILVSVNGRSSDLVSAQVILANELNFALVGSEDSTDNDYNDAVVVINWPLG
- glycan array binding signal (z-score) [1]: -0.557
- glycan array binding signal (z-score) [2]: -0.272
- glycan array binding signal (z-score) [3]: -0.542
- glycan array binding signal (z-score) [4]: -0.54
- glycan array binding signal (z-score) [5]: -0.554
- glycan array binding signal (z-score) [6]: -0.545
- glycan array binding signal (z-score) [7]: 1.14
- glycan array binding signal (z-score) [8]: -0.555
- glycan array binding signal (z-score) [9]: -0.547
- glycan array binding signal (z-score) [10]: -0.147
- glycan array binding signal (z-score) [11]: -0.547
- glycan array binding signal (z-score) [12]: -0.551
- glycan array binding signal (z-score) [13]: 0.924
- glycan array binding signal (z-score) [14]: 0.728
- glycan array binding signal (z-score) [15]: 1.88
- glycan array binding signal (z-score) [16]: 1.52
- glycan array binding signal (z-score) [17]: 2.27
- glycan array binding signal (z-score) [18]: -0.21
- glycan array binding signal (z-score) [19]: -0.284
- glycan array binding signal (z-score) [20]: -0.307
- glycan array binding signal (z-score) [21]: 0.644
- glycan array binding signal (z-score) [22]: 1.06
- glycan array binding signal (z-score) [23]: 0.586
